This note sets out measurements from PubChem BioAssay AID1963576 (National Center for Advancing Translational Sciences (NCATS), 2024).

Screen size: about 46,000 compounds; about 60 (0.1%) were called active. Inconclusive results (about 3%) are left out. Calls follow the shape of the dose curve; as a rule, active = well fitted inhibition curve with a large enough effect; inconclusive = small, poorly fitted or top-dose-only effect; inactive = no such curve, though single readings can be large or run the other way. The list shows a part of the results.

A short description of the assay: Primary qHTS assay for Inhibitors of ovarian cancer metastasis using an organotypic tumor microenvironment (TME) model. Also: nearly all actives have a fitted effect of over 65% in size.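 As to activity change, negative = inhibition: plate controls were DMSO wells for no effect and tomatine positive control wells for full effect.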 The settings on record: SKOV3ip1-GFP adhesion/invasion on 3D omental model, fluorescence; series mostly up to 45.8 µM; activity change, negative = inhibition: at the top concentration. The essentials:
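A 3D layer of primary human omental fibroblasts, mesothelial cells, fibronectin and collagen I, grown 48 hr, received SKOV3ip1-GFP cells in serum-free medium plus compounds at 0.36-46 umol/L. After 2 hr RT and 16 hr 37 C, fixed adherent GFP cells were counted; normalized to DMSO and tomatine.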
As for `O=C1NCCN(Cc2ccc(F)cc2)C1=O`, the result was inactive. As to `CCN(CC)c1ccc(NS(=O)(=O)c2ccc(-c3cnc(C4CC4)o3)cc2)c(C)c1`, the molecule was called inactive. As for `CCOC(=O)c1[nH]c2c(c1Cc1ccccc1)C(=O)CC(c1ccc(Cl)cc1)C2` (configuration not stated), the “activity change, negative = inhibition” value was inactive: -1.51%. Turning to `CCc1ccc(S(=O)(=O)c2cn(CC(=O)Nc3ccc(C)cc3)c3ccccc3c2=O)cc1`, the outcome was inactive. On to `Cn1c(=O)c(=O)n(C)c2cc(N3CCOCC3)c(NS(=O)(=O)c3ccc(Cl)cc3)cc21`, for which the “activity change, negative = inhibition” value was inactive: 3.76%. Still for that read-out and setting: with `COC(=O)c1scc(-c2ccc(C)cc2)c1S(=O)(=O)Nc1cc(Cl)ccc1C` the figure was inactive: 2.82%; with `COCCOC(=O)c1c(C)n(S(=O)(=O)c2ccc(C)cc2)c2ccc(NS(=O)(=O)c3ccc(C)cc3)cc12`, inactive: 13%. Consider `CCOc1ccccc1NC(=O)c1sc2nc3n(c(=O)c2c1C)CCCCC3`, for which the outcome was inactive. In the case of `COc1cccc(C(c2sc3nc(-c4ccco4)nn3c2O)N2CCC(O)CC2)c1` (configuration not stated), the “activity change, negative = inhibition” value is inactive: 0.589%. The same measure, in the same setting: for `Cc1ccc(CNC(=O)c2ccc3nc(N4CCCCC4)sc3c2)cc1` the value was inactive: 142%; for `O=S(=O)(NCCc1nnc2ccc(SCc3ccc(Cl)cc3Cl)nn12)c1ccccc1`, inactive: -5.26%. As for `CCOc1ccc(CCNC(=O)c2ccc3c(Cl)c4c(nc3c2)CCCC4)cc1`, the molecule was called inactive.

Regarding `CCOC(=O)c1ccc(NC(=O)c2c(NC(C)=O)sc3c2CCC(C)C3)cc1` (configuration not stated), the “activity change, negative = inhibition” value was inactive: 1.88%. Take `COc1ccc(F)cc1S(=O)(=O)NCCc1c(C)[nH]c2c(Cl)cccc12`: the “activity change, negative = inhibition” value was inactive: 2.98%. The same measure, in the same setting: with `COc1ccc(OC)c(CCNC(=O)c2ccc3c(c2)N(Cc2ccc(C)cc2)CCS3)c1` the figure was inactive: -5.47%.

`CCc1cccc(OCC(=O)Nc2ccc(S(=O)(=O)Nc3cc(C)nc(C)n3)cc2)c1`: the “activity change, negative = inhibition” value is inactive: -11.8%. In the case of `Cc1cc(C)cc(NC(=O)CSc2nc3c(oc4ccccc43)c(=O)n2-c2ccccc2F)c1`, the “activity change, negative = inhibition” value is inactive: -21.3%. `COc1ccc2cc3cc(C(=O)NCc4ccc(C)cc4)oc3nc2c1`: the “activity change, negative = inhibition” value is inactive: 1.32%. Regarding `CCOCCCNC(=O)C1CCN(c2nn3cc(-c4ccc(F)cc4)nc3s2)CC1`, the call was inactive. Turning to `CCCCOc1ccc(C(=O)Nc2nnc3n2CCS3)cc1`, the “activity change, negative = inhibition” value was inactive: -29.3%. Regarding `CCOC(=O)N1CCC(NC(=O)c2c(C)nn(-c3ccc(C)cc3)c2-n2cccc2)CC1`, the “activity change, negative = inhibition” value was inactive: -1.75%. On to `COc1ccc(Nc2cc(C(=O)NCCc3ccc(C)cc3)c3ccccc3n2)c(OC)c1`, for which the “activity change, negative = inhibition” value was inactive: -0.148%.

With `CCOc1ccc(NC(=O)CCNS(=O)(=O)c2ccc3c(c2)oc(=O)n3C)cc1`, the “activity change, negative = inhibition” value was inactive: 0.327%. As to `COc1cc(-c2noc(-c3ccc(NCc4ccccc4)c([N+](=O)[O-])c3)n2)cc(OC)c1OC`, the molecule was called inactive. Consider `Cc1ccc(C(=O)NCCc2ccc(Cl)cc2)cc1-n1c(C)nc2cccnc21`, for which the “activity change, negative = inhibition” value was inactive: 3.74%. Same read-out and setting: for `CCOc1ccc(-c2nn(CC(=O)NC3CCCCC3)c3c2cnc2ccc(C)cc23)cc1` the value was inactive: 9.54%; for `CCn1c(=O)c2cc(C(=O)N(CCN(C)C)Cc3ccccc3)sc2c2ccccc21`, inactive: 1.84%.

Turning to `COc1ccc(Cl)cc1NC(=O)c1sc(-n2nc(C)c(Cc3ccccc3)c2C)nc1C`, the molecule was classed as inactive. Turning to `Cc1ccc(C)c(Cn2c3ccccc3c3cnn(CC(=O)NCCC4=CCCCC4)c(=O)c32)c1`, the “activity change, negative = inhibition” value was inactive: 8.4%. For `COc1ccccc1CNC(=O)c1ccc2c(c1)N(Cc1cccc(C)c1)C(=O)c1ccccc1S2(=O)=O`, the “activity change, negative = inhibition” value was inactive: -17.7%. Take `COc1ccc(NC(=O)Cn2nnc3sc4c(c3c2=O)CCC(C)C4)c(OC)c1` (configuration not stated): the “activity change, negative = inhibition” value was inactive: -0.336%. With `CCc1ccc(CN(Cc2ccco2)C(=O)c2ccc(OC)cc2)cc1`, the molecule was classed as inactive. On the same count and under the same terms, for `COc1ccc(N2CCN(c3oc(/C=C/c4ccc(F)cc4)nc3C#N)CC2)cc1` the value was “inactive”. In the case of `COCCCNC(=O)CSC1=Nc2ccccc2C2=NC(CCC(=O)NCc3ccccc3OC)C(=O)N12` (configuration not stated), the “activity change, negative = inhibition” value was inactive: -14.8%. As for `O=S(=O)(Nc1cccc(-c2ccc(N3CCCC3)nn2)c1)c1ccccc1C(F)(F)F`, the “activity change, negative = inhibition” value is inactive: 0.939%.

Take `Cc1nnc(SCc2ccccc2)c2cc3sccc3n12`: the “activity change, negative = inhibition” value is inactive: -26.3%.

On to `CCOc1cc(C(=O)N2CC(=O)Nc3ccc(C)cc3C2c2ccccc2)cc(OCC)c1OCC` (configuration not stated), for which the “activity change, negative = inhibition” value was inactive: 28.2%. Regarding `CCc1ccc(CNC(=O)CCC(=O)N2Cc3cccc(OC)c3Oc3ncccc32)cc1`, the “activity change, negative = inhibition” value is inactive: 3.77%. Still for that read-out and setting: with `O=C(NCc1ccco1)C1CCN(C(=O)N2CCOc3ccccc32)CC1` the figure was inactive: -8.62%. As for `CCOc1cccc(CNC(=O)c2ccc(N3CCCC3)c(NC(=O)NCc3ccc(F)cc3)c2)c1`, the “activity change, negative = inhibition” value is inactive: 19.6%. As for `Cc1ccc(Cl)cc1N(C)C(=O)Cn1nc(Cc2cccnc2)c2ccccc2c1=O`, the molecule was called inactive. On to `Nc1c(-c2nc(-c3cccs3)no2)nnn1-c1ccccc1Cl`, for which the “activity change, negative = inhibition” value is inactive: -0.61%. For the molecule `Cc1ccccc1NC(=O)CSc1nnc(C)c(=O)[nH]1`, the call was inactive. Regarding `O=C(Nc1cccc(C(=O)OCc2cc(=O)n3nc(C4CC4)sc3n2)c1)c1ccccc1`, the “activity change, negative = inhibition” value is inactive: -8.9%. Turning to `Cc1cc(C)cc(OC(C)C(=O)Nc2nonc2-c2ccc(Br)cc2)c1` (configuration not stated), the “activity change, negative = inhibition” value was inactive: -6.37%. On to `CCOc1ccc(-c2nonc2NC(=O)c2oc3c(C)c(C)ccc3c2C)cc1OCC`, for which the “activity change, negative = inhibition” value is inactive: 0.331%. Regarding `Cc1ccc(C)c(Cn2c3ccccc3c3cnn(CC(=O)NCCCc4ccccc4)c(=O)c32)c1`, the “activity change, negative = inhibition” value was inactive: -1.83%.
